Measured values: PubChem BioAssay AID485294 (National Center for Advancing Translational Sciences (NCATS), 2010)
Hit rate of the full screen: of about 370,000 compounds, about 150 (0.041%) were called active. Inconclusive means that the source gave no clear call. Such entries were picked first, then a sample of the others. The call rests on the fitted dose curve; in most records, active means well fitted inhibition curve with a large enough effect; inconclusive means small, poorly fitted or top-dose-only effect; inactive means flat fitted curve, though single readings scatter. No potency is given beside an inconclusive call; the fits are too rough.

Biological target: Beta-lactamase (Escherichia coli (strain K12)) (UniProt P00811)
Assay: qHTS Inhibitors of AmpC Beta-Lactamase (assay with detergent); further: nearly all actives have a fitted effect of over 25% in size
Conditions: AmpC hydrolysis of nitrocefin, absorbance 480 nm, 0.01% Triton; series mostly up to 114 µM
In short: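 20 mM phosphate pH 7.0 + 0.01% (detergent screen) or 0.0001% Triton X-100; 5.3 nM AmpC reagent; cpd preinc 15 min RT; nitrocefin (800 uM stock) to start; A480 q20 s × 4 min; Activity was normalised to no-enzyme and no-compound control wells.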
Potency means the concentration at half of the fitted maximal effect; tags describe the fitted curve by direction and shape.

Chain of UniProt P00811 (P00811 whole entry, looked up): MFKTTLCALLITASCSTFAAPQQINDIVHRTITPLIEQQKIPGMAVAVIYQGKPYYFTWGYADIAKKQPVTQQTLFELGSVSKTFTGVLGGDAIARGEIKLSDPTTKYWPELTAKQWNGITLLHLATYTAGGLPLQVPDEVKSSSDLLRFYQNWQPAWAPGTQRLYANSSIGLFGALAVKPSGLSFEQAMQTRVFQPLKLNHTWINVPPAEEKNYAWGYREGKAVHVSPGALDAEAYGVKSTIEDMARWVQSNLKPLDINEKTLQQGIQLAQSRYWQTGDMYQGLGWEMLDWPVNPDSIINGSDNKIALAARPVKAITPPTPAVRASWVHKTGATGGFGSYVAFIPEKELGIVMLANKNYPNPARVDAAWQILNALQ

| Compound | Potency |
| --- | --- |
| CCCn1c(NC(=O)c2ccc(Cl)c(S(=O)(=O)N3CCCC3)c2)nc2ccccc21 | inconclusive [inhibitor, partial curve, poor fit] |
| Cc1ccc(S(=O)(=O)c2cc3c(=O)n4ccccc4nc3n(Cc3ccco3)c2=N)cc1C | inactive |
| COc1ccc(Cn2cnc3c(NS(C)(=O)=O)c(C)c(C)cc32)cc1 | inactive |
| COc1ccc(NC(=O)CN2CCN(c3ccc(C)cc3C)CC2)cc1 | inconclusive [inhibitor, full curve, poor fit] |
| COc1ccc(-c2nc(C(=O)O)cs2)cc1OC | inactive |
| CCCCCn1c(=O)[nH]c2cc(C(=O)Nc3ccc(OC)c(OC)c3)ccc2c1=O | inactive |
| CCN(CC)S(=O)(=O)c1cccc(C(=O)Nc2ccc(Cl)cn2)c1 | inconclusive [inhibitor, full curve, poor fit] |
| COc1cccc(N2CCN(C(=O)Cn3cnc4onc(-c5ccc(F)cc5)c4c3=O)CC2)c1 | inactive |
| Nc1nc2ccc([N+](=O)[O-])c(N)c2s1 | inactive |
| O=C(/C=C/c1ccccc1)NNC(=O)c1cccnc1 | inconclusive [inhibitor, partial curve, poor fit] |
| NCCCCCC(=O)OC1N=C(c2ccccc2Cl)c2cc(Br)ccc2NC1=O (configuration not stated) | inconclusive [inhibitor, partial curve, poor fit] |
| O=C(Nc1ccc(N2CCN(C(=O)c3cccs3)CC2)cc1)c1cccnc1 | inactive |
| CCCN1CNC(=S)N(CC2CCCO2)C1 (configuration not stated) | inconclusive [inhibitor, partial curve, poor fit] |
| Cc1ccc(N(CC(=O)N2CCN(c3ccc(F)cc3)CC2)S(=O)(=O)c2c(C)nn(C)c2C)cc1 | inconclusive [inhibitor, partial curve] |
| CC(C)CC1C(C#N)=C(N)Oc2c1c(=O)oc1ccccc21 (configuration not stated) | inconclusive [inhibitor, full curve, poor fit] |
| Cc1cc(Oc2ccc(C(F)(F)F)cc2[N+](=O)[O-])c2c3c(c(=O)oc2c1)CCCC3 | inconclusive [inhibitor, partial curve] |
| Cc1ccc(NC(=O)CN(C)C(=O)c2cc(S(=O)(=O)N(C)C)ccc2N2CCCC2)cc1 | inconclusive [inhibitor, partial curve] |
| COc1ccc(-c2csc(NC(=O)CCCc3nc4ccccc4c(=O)[nH]3)n2)cc1OC | inconclusive [inhibitor, partial curve, poor fit] |
| CC(=O)c1ccc(N(C(=O)CS(=O)CC(=O)Nc2ccc(F)cc2)C(C(=O)NC2CCCCC2)c2cccs2)cc1 (configuration not stated) | inconclusive [inhibitor, full curve] |
| CCOC(=O)C1CCN(C(=O)c2cc3c(s2)-c2ccccc2OC3)CC1 | inconclusive [inhibitor, partial curve] |
| CCCCOc1ccc(C(=O)NC(=S)Nc2ccc(CN3CCOCC3)cc2)cc1 | inactive |
| Cc1ccc(-c2cc(C(=O)Nc3ccc(S(=O)(=O)Nc4cc(C)on4)cc3)c3ccccc3n2)c(C)c1 | inconclusive [inhibitor, single point] |
| Cc1c(N)c(C(C)(C)C)cc(C(C)(C)C)c1[N+](=O)[O-] | inactive |

| Compound | Potency |
| --- | --- |
| Cc1ccc(N=C2N=C(N)c3ccccc32)c(C)c1 | inactive |
| COc1cc(CNc2ccc(N3CCOCC3)cc2)cc(Br)c1OC | inactive |
| CCc1ccc(C(=O)COC(=O)C2CCN(c3ccc(C(F)(F)F)cn3)CC2)cc1 | inconclusive [inhibitor, partial curve] |
| CCCc1cc(C(=O)Nc2cc(C)ccc2O)no1 | inactive |
| CC(Oc1ccc(Cl)cc1Cl)C(=O)NNC(=O)c1ccncc1 (configuration not stated) | inactive |
| O=S(=O)(NC(=NC1CCCC1)C(F)(F)F)c1ccccc1 | inconclusive [inhibitor, partial curve, poor fit] |
| NC(=O)CC1C(=O)N(c2ccccc2)C(=S)N1NC(=O)c1ccccc1 (configuration not stated) | inactive |
| CCOc1ccc(/C=C/C(=O)OCC(=O)c2ccccc2OC)cc1OC | inconclusive [inhibitor, single point] |
| CCCC(c1nnnn1CS(=O)(=O)c1ccc(C)cc1)N1CCN(c2ccc(F)cc2)CC1 (configuration not stated) | inconclusive [inhibitor, partial curve] |
| CCOC(=O)c1snc2c(=O)[nH]cnc12 | inactive |
| NC(=O)[C@H]1CC2(CC(c3cccc(NC(=O)CC(c4ccccc4)c4ccccc4)c3)=NO2)CN1C(=O)CC(c1ccccc1)c1ccccc1 (some centres not stated) | inactive |
| CC1=Nc2ccccc2/C1=C\c1nc(-c2ccccc2)oc1O | inconclusive [inhibitor, single point] |
| COC(=O)c1nnn(CC(=O)Nc2cccc(Cl)c2)c1C(=O)OC | inconclusive [inhibitor, full curve, poor fit] |
| Cc1ccc(OCCCN2CCOCC2)cc1 | inconclusive [inhibitor, full curve, poor fit] |
| CC1=NN(c2ccccc2)C(=O)/C1=C/C=C/c1ccc(N(C)C)cc1 | inconclusive [inhibitor, full curve, poor fit] |
| O=C(N/C(=C\c1ccc([N+](=O)[O-])cc1)C(=O)N1CCCCC1)c1ccccc1Br | inconclusive [inhibitor, partial curve, poor fit] |
| CCOc1ccccc1C(=O)Nc1cnn(Cc2ccc(F)cc2)c1 | inconclusive [inhibitor, partial curve] |
| CCCCn1c(O)c(C(CC)=NCc2ccco2)c(=O)[nH]c1=O | inconclusive [inhibitor, full curve, poor fit] |
| CCCCn1c(N)c(N(CCOC)C(=O)c2cc(S(=O)(=O)N3CCCCC3)ccc2C)c(=O)[nH]c1=O | inconclusive [inhibitor, full curve, poor fit] |
| O=C(N/N=C/C(Br)=C/c1ccccc1)c1ccncc1 | inactive |
| C[C@@H](C(=O)Nc1ccc2ccccc2c1)[C@H]1C[C@]1(C)[C@H](NS(=O)(=O)c1ccccc1)c1ccccc1 | inconclusive [inhibitor, full curve] |
| CNC(=O)c1[nH]cnc1C(=O)Nc1ccc(C)cc1 | inconclusive [inhibitor, single point] |
| CCOC(=O)c1nn(-c2ccc3c(c2)OCO3)cc1O | inconclusive [inhibitor, partial curve] |

| Compound | Potency |
| --- | --- |
| CC(=O)NCCC(=O)Nc1nc2c(ccc3ccccc32)s1 | inconclusive [inhibitor, full curve, poor fit] |
| O=C(O)c1ccc(CSc2nnc(-c3ccccc3Br)o2)cc1 | inconclusive [inhibitor, single point] |
| COc1ccc(C2C(C#N)=C(N)Nc3onc(C(C)(C)C)c32)c(OC)c1 (configuration not stated) | inconclusive [inhibitor, full curve, poor fit] |
| O=c1nc2c(-c3ccccc3F)n[nH]n2c2ccccc12 | inactive |
| Cc1ccc(COC(=O)NCc2cccnc2)cc1 | inconclusive [inhibitor, full curve, poor fit] |
| COc1ccc(C)cc1NC(=O)c1ccccc1NS(=O)(=O)c1ccc(Cl)s1 | inconclusive [inhibitor, partial curve, poor fit] |
| Cc1ccccc1C(=O)O/N=C(\N)c1ccc([N+](=O)[O-])cc1 | inconclusive [inhibitor, full curve, poor fit] |
| Cc1ccc(C(=O)N/N=C/c2ccoc2)cc1C | inconclusive [inhibitor, full curve] |
| CCn1c(CSc2nc(C)cs2)nc2cc(S(=O)(=O)N(C)C)ccc21 | inconclusive [inhibitor, partial curve, poor fit] |
| Cc1ccc(NC(=O)CSc2nc(=O)n3cc(C)ccc3n2)c(C)c1 | inconclusive [inhibitor, full curve, poor fit] |
| O=C(NCCN1CCCC1=O)Nc1ccccc1 | inconclusive [inhibitor, single point] |
| CC1O[C@@H](OCC2O[C@@H](Oc3cc(O)c4c(c3)OC(c3ccc(O)cc3)CC4=O)[C@H](O)[C@@H](O)[C@@H]2O)[C@H](O)[C@H](O)[C@H]1O (some centres not stated) | inconclusive [inhibitor, full curve, poor fit] |
| CNc1nc(N/N=C/c2ccc([N+](=O)[O-])cc2)nc(Nc2ccccc2)n1 | inconclusive [inhibitor, single point] |
| CSc1ccc(/C=C/C(=O)c2c(O)cc(C)oc2=O)cc1 | inactive |
| COC(=O)c1cc(=O)n(CCc2ccc(OC)c(OC)c2)c(=Nc2ccc(F)c(Cl)c2)s1 | inactive |
| COc1ccc(CNC(=O)/C=C/c2cc([N+](=O)[O-])ccc2OC(F)F)cc1OC | inconclusive [inhibitor, single point] |
| CC(C)c1cc(C(=O)Nc2cccc(Cl)c2)no1 | inactive |
| O=C(OCc1cc2ccccc2[nH]c1=O)c1cccc([N+](=O)[O-])c1 | inactive |
| Cc1cc(N2C(=O)c3ccc(C(=O)Nc4ccccc4O)cc3C2=O)no1 | inconclusive [inhibitor, single point] |
| CN(C)CCCNc1ccc(-c2cc(Nc3cccc(Cl)c3)ncn2)cn1 | inactive |
| COc1ccc(N2Cc3cccc(C(=O)N4CCOCC4)c3C2=O)cc1 | inconclusive [inhibitor, full curve, poor fit] |
